No constants are given. Whether binding was seen depends on the method and setting. Some results given as binding are weak or reduced against the parent protein; the word gives no strength. Blank lines part the entries; values can stand above or below the molecule they belong to.
Experiments:
[1] = molecular target: T1, RecG DNA helicase, wildtype (E. coli, UniProt P24230 1-693); experiment: condition: SSBΔF 335 μM injected; RecG 7.41 μM in the cell; ITC; SSB proteins or unlabeled peptides injected into RecG in the cell; 20 mM Tris-HCl pH 8.0, 150 mM NaCl, 10% glycerol, 1 mM EDTA, 1 mM β-mercaptoethanol; 25°C; one-site model; concentrations as monomers; both purified
T1 construct: RecG DNA helicase, E. coli, expressed from overexpression plasmid pEAW111; No tag is mentioned; also called WT RecG; source: E. coli STL2669/pT7pol26 with pEAW111, purified (ammonium sulfate, DEAE, Source 15Q, Source 15S)
T1 sequence (looked up): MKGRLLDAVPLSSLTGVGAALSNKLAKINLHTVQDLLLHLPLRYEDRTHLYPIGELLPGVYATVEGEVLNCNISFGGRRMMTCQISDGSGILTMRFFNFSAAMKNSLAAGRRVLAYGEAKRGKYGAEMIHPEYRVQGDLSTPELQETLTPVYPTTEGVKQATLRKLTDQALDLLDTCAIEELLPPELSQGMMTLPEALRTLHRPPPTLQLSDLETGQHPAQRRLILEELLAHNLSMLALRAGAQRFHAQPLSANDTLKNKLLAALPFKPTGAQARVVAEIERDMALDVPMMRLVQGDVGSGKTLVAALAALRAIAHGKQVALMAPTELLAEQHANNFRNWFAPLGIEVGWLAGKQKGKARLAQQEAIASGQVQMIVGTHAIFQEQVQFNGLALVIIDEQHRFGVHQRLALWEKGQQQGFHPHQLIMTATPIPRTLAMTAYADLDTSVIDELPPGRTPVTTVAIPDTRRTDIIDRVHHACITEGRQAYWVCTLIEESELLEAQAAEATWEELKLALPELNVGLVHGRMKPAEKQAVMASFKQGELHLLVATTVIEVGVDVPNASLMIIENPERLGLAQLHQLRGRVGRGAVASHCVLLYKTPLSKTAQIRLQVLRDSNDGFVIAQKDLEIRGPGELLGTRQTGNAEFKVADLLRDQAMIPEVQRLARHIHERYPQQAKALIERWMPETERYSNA

By UniProt entry, the sequences of proteins in these tests, tags left out. Where a name states a change or a piece, a line headed by the entry shows the natural chain unless it says otherwise.
UniProt P0AGE0: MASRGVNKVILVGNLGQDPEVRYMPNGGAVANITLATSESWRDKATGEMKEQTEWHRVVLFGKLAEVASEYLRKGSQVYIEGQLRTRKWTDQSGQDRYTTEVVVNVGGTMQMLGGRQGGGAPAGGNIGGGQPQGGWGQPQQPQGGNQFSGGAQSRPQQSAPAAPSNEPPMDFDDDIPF

RecG R474E [2] = molecular target: T2, RecG R474E (E. coli, UniProt P24230 1-693, R474E); experiment: condition: SSB 263 μM injected; RecG R474E 12.9 μM in the cell; ITC; SSB proteins or unlabeled peptides injected into RecG in the cell; 20 mM Tris-HCl pH 8.0, 150 mM NaCl, 10% glycerol, 1 mM EDTA, 1 mM β-mercaptoethanol; 25°C; one-site model; concentrations as monomers; both purified
T2 construct: RecG DNA helicase, E. coli, R474E introduced into pEAW111 to give pNJB3; also called Arg474Glu RecG variant; source: E. coli STL2669/pT7pol26 with pNJB3, purified (same scheme as wildtype RecG)
T2 sequence (looked up): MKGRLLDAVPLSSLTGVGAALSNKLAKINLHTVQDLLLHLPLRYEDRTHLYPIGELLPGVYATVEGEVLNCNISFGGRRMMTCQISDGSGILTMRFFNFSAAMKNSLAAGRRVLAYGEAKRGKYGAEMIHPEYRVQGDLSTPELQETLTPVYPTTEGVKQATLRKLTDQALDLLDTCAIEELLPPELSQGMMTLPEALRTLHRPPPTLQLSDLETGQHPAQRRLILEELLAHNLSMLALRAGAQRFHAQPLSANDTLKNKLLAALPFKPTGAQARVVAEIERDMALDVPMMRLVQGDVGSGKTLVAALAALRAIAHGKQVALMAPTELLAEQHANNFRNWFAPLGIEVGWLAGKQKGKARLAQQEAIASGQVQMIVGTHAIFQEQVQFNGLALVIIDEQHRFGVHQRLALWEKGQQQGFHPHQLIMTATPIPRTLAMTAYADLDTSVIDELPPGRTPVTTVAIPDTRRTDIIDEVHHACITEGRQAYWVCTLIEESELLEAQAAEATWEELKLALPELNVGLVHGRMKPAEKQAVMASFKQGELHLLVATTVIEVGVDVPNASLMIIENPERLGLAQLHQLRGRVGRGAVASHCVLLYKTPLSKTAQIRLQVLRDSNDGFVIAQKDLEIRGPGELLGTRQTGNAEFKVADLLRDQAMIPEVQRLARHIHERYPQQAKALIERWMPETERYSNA

[3] = compound: SSB Gal4 hybrid (E. coli) (UniProt P0AGE0); experiment: two-hybrid; Gal4 DNA-binding domain (pGBD) and activation domain (pGAD) fusions in S. cerevisiae pJ69-4a; growth on SD His- and Ade-deficient plates, 30°C, 4-5 days
[4] = molecular target: T3, SSB-Ct peptide, 6-FAM labelled (E. coli); experiment: fluorescence polarisation; RecG titrated against 10 nM 6-FAM peptide; 0.2 M potassium glutamate, 1 mM DTT, 0.1 μg/ml BSA, 1x RecA buffer (25 mM Tris-acetate pH 7.6, 5% glycerol, 10 mM magnesium acetate); 30 min at room temperature, read at 25°C; one site binding model, triplicate; both purified
T3 sequence (peptide, 6-FAM label on the N-terminus): WMDFDDDIPF

RecG R474E [5] = molecular target: T2, RecG R474E; experiment: condition: SSB-Ct peptide 308 μM injected; RecG R474E 12.9 μM in the cell; ITC; SSB proteins or unlabeled peptides injected into RecG in the cell; 20 mM Tris-HCl pH 8.0, 150 mM NaCl, 10% glycerol, 1 mM EDTA, 1 mM β-mercaptoethanol; 25°C; one-site model; concentrations as monomers; both purified

B1: RecG Gal4 hybrid, wildtype (enzyme, UniProt P24230 1-693)
chain: MKGRLLDAVPLSSLTGVGAALSNKLAKINLHTVQDLLLHLPLRYEDRTHLYPIGELLPGVYATVEGEVLNCNISFGGRRMMTCQISDGSGILTMRFFNFSAAMKNSLAAGRRVLAYGEAKRGKYGAEMIHPEYRVQGDLSTPELQETLTPVYPTTEGVKQATLRKLTDQALDLLDTCAIEELLPPELSQGMMTLPEALRTLHRPPPTLQLSDLETGQHPAQRRLILEELLAHNLSMLALRAGAQRFHAQPLSANDTLKNKLLAALPFKPTGAQARVVAEIERDMALDVPMMRLVQGDVGSGKTLVAALAALRAIAHGKQVALMAPTELLAEQHANNFRNWFAPLGIEVGWLAGKQKGKARLAQQEAIASGQVQMIVGTHAIFQEQVQFNGLALVIIDEQHRFGVHQRLALWEKGQQQGFHPHQLIMTATPIPRTLAMTAYADLDTSVIDELPPGRTPVTTVAIPDTRRTDIIDRVHHACITEGRQAYWVCTLIEESELLEAQAAEATWEELKLALPELNVGLVHGRMKPAEKQAVMASFKQGELHLLVATTVIEVGVDVPNASLMIIENPERLGLAQLHQLRGRVGRGAVASHCVLLYKTPLSKTAQIRLQVLRDSNDGFVIAQKDLEIRGPGELLGTRQTGNAEFKVADLLRDQAMIPEVQRLARHIHERYPQQAKALIERWMPETERYSNA
binding [3]: binds

B2: RecG R474E (enzyme, UniProt P24230 1-693)
chain: MKGRLLDAVPLSSLTGVGAALSNKLAKINLHTVQDLLLHLPLRYEDRTHLYPIGELLPGVYATVEGEVLNCNISFGGRRMMTCQISDGSGILTMRFFNFSAAMKNSLAAGRRVLAYGEAKRGKYGAEMIHPEYRVQGDLSTPELQETLTPVYPTTEGVKQATLRKLTDQALDLLDTCAIEELLPPELSQGMMTLPEALRTLHRPPPTLQLSDLETGQHPAQRRLILEELLAHNLSMLALRAGAQRFHAQPLSANDTLKNKLLAALPFKPTGAQARVVAEIERDMALDVPMMRLVQGDVGSGKTLVAALAALRAIAHGKQVALMAPTELLAEQHANNFRNWFAPLGIEVGWLAGKQKGKARLAQQEAIASGQVQMIVGTHAIFQEQVQFNGLALVIIDEQHRFGVHQRLALWEKGQQQGFHPHQLIMTATPIPRTLAMTAYADLDTSVIDELPPGRTPVTTVAIPDTRRTDIIDEVHHACITEGRQAYWVCTLIEESELLEAQAAEATWEELKLALPELNVGLVHGRMKPAEKQAVMASFKQGELHLLVATTVIEVGVDVPNASLMIIENPERLGLAQLHQLRGRVGRGAVASHCVLLYKTPLSKTAQIRLQVLRDSNDGFVIAQKDLEIRGPGELLGTRQTGNAEFKVADLLRDQAMIPEVQRLARHIHERYPQQAKALIERWMPETERYSNA
binding [4]: no binding (tested: >30 μM)

B3: SSB-Ct peptide, unlabeled (peptide)
peptide: WMDFDDDIPF
notes: N-terminal tryptophan residue added for quantification; C-terminal tip of SSB, E. coli; source: synthetic peptide (Genscript)
binding (RecG R474E [5]): no binding

Second part, the molecule after the results:

binding [1]: no binding
Molecule: SSBΔF protein variant (from UniProt P0AGE0 1-177)

binding (RecG R474E [2]): no binding
Molecule: single-stranded DNA-binding protein (SSB), full-length wildtype (from UniProt P0AGE0 1-178)

Source: publication PMC10164576, “Interaction with the carboxy-terminal tip of SSB is critical for RecG function in E. coli” (Nucleic Acids Research, 2023)
